Experimental data from PubChem BioAssay AID1345082 (National Center for Advancing Translational Sciences (NCATS), 2018).
About 4,000 (4.3%) of roughly 94,000 compounds were called active. The inconclusive results got no clear call from the source; some entries with a clear call stand among them for comparison. Calls come from the whole dose curve; as a rule, active = well fitted inhibition curve with a large enough effect; inconclusive = small, poorly fitted or top-dose-only effect; inactive = no such curve, though single readings can be large or run the other way. Where the call is inconclusive, the potency comes from a doubtful curve fit.
% is set by controls: 0 for no effect and ±100 for the full control effect; potency is the fitted concentration of half-maximal effect; tags give direction and shape of the fitted curve.

Test: Cytotoxic Profiling in NIH 3T3 Cell Line of Diverse Libraries Using Quantitative High-Throughput Screening; note: nearly all actives have a fitted effect of over 55% in size
Conditions: NIH 3T3 viability, CellTiter-Glo ATP luminescence, 48-72 h; activity change, negative = cytotoxicity: at 96.7 µM (top of the series) unless noted; series mostly up to 96.7 µM
Method in brief: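 Viability of NIH 3T3 cells after 48 or 72 hr compound treatment at 37 °C was assessed by CellTiter-Glo, with luminescence imaged following a 10 min room-temperature step.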
For `O=C(NCCC1CCN(C(=O)Nc2cc(F)cc(F)c2)CC1)c1ccc(F)cc1`, the Potency was inconclusive: 44.7 µM [inhibitor, partial curve, poor fit].
For `CCC(NS(=O)(=O)c1ccc(C(=O)NC2CC2)cc1)c1cnn(C)c1` (stereo unspecified), the “activity change, negative = cytotoxicity” value was inactive: -0.019%.
With `CCOc1ccccc1C(=O)N1CC(=O)N(CCOc2ccccc2)CC(O)C1` (stereo unspecified) the “activity change, negative = cytotoxicity” value was inactive: -18.2%.
With `Cc1ccc(CN2CC[C@@H]3[C@H]2C(=O)NC[C@H](CCC(=O)N2CCN(C)CC2)N3C)cc1` the “activity change, negative = cytotoxicity” value was inactive: -20% [at 174 µM].
For `O=C1c2cnc(-c3cc4ccccc4o3)nc2OCCN1CC1CC1`, the Potency was inconclusive: 56.2 µM [inhibitor, partial curve, poor fit].
In the case of `COc1ccc(-c2cc(N3CCC(NC(=O)Cc4ccccc4OC)CC3)n[nH]2)cc1`, the Potency is reported as inconclusive: 35.5 µM [inhibitor, partial curve].
With `O=C(O)C1=NOC2CN(Cc3ccc(C(F)(F)F)cc3)CC12` (stereo unspecified) the “outcome” value was “inactive”.
With `CC1(C)[C@H](Cc2cc(COc3ccccc3)on2)C[C@@H]1NC(=O)COc1ccccc1` the Potency was active: 63.1 µM.
With `Cc1nn(-c2ccccc2)c2c1C(C(C)C)N(C1CCN(C(=O)c3ccccc3)CC1)C2=O` (stereo unspecified) the Potency was inconclusive: 50.1 µM [inhibitor, partial curve, poor fit].
With `CN(C)C[C@@H]1CN(Cc2ccccn2)C[C@H]1NC(=O)c1ccc2cc[nH]c2c1` the Potency was inconclusive: 44.7 µM [inhibitor, partial curve, poor fit].
With `COc1ccc(NC(=O)c2cc3n(n2)CC(c2ccc4c(c2)OCO4)OC3)cc1` (stereo unspecified) the Potency was inconclusive: 39.8 µM [inhibitor, partial curve, poor fit].
With `O=C(NC1CCCCCC1)C1CCCN(Cc2cccc(-c3cccs3)c2)C1` (stereo unspecified) the Potency was inconclusive: 44.7 µM [inhibitor, partial curve, poor fit].
In the case of `COc1ccc(NC(=O)Nc2cccc(-c3ccc(N4CCCCC4)nn3)c2)c(OC)c1`, the “activity change, negative = cytotoxicity” value is reported as inactive: -17.9%.
In the case of `O[C@@H]1CO[C@H]2[C@@H]1OC[C@@H]2n1nnnc1Sc1ccccc1`, the Potency is reported as inconclusive: 112 µM [inhibitor, single point].
In the case of `COc1ccc(N2CC3CCC(C2)N3Cc2cccc(-c3ccsc3)c2)cc1`, the “activity change, negative = cytotoxicity” value is reported as inactive: -8.36%.
For `COc1ccc(-c2cccc(C(=O)N3CCN(C(=O)Nc4ccccc4)CC3)c2)nn1`, the “activity change, negative = cytotoxicity” value was inactive: -22.7%.
In the case of `CCOC(=O)C1CCCN(C(=O)c2ccc3nc(-c4cccnc4)oc3c2)C1` (stereo unspecified), the Potency is reported as inconclusive: 44.7 µM [inhibitor, partial curve, poor fit].
With `O=C(NCc1ccc2c(c1)OCO2)C1CN(c2ccccc2)C(=O)N1` (stereo unspecified) the Potency was inconclusive: 63.1 µM [inhibitor, partial curve, poor fit].
For `CC(C)CNc1ccc2c(n1)C(C)(C(=O)N1CCOCC1)CN(Cc1ccccc1)C2` (stereo unspecified), the Potency was inconclusive: 89.1 µM [inhibitor, partial curve].
In the case of `O=C(CC(c1ccc(F)cc1)c1cn(Cc2ccccc2)c2ccc([N+](=O)[O-])cc12)N1CCOCC1` (stereo unspecified), the Potency is reported as inconclusive: 14.1 µM [inhibitor, full curve].
With `COc1ccc(-c2[nH]nc3ncc(-c4cccc(CO)c4)nc23)c(C)c1` the Potency was inconclusive: 28.2 µM [inhibitor, full curve].
With `Cc1ccc(C(=O)NCCn2cccc2-c2nc(-c3ccc4c(c3)OCO4)no2)cc1` the “activity change, negative = cytotoxicity” value was inactive: -10.7%.
For `Cc1ccsc1C(=O)N1CCCn2cc(-c3cccc(C#N)c3)nc21`, the “activity change, negative = cytotoxicity” value was inactive: -14.1%.
With `Cc1nc(-c2cccc(Cl)c2)n(CC(=O)Nc2ccc(F)cc2)c(=O)c1CCO` the Potency was inconclusive: 39.8 µM [inhibitor, partial curve].
With `COc1ccc(C(=O)N2CCCC(n3cc(-c4nc(C)no4)nn3)C2)cc1F` (stereo unspecified) the “activity change, negative = cytotoxicity” value was inactive: -19.6%.
In the case of `CCN(C)c1ccnc(N2CC[C@@H]3C[C@H](N4CCOCC4)CC[C@@]3(COC)C2)n1`, the Potency is reported as inconclusive: 70.8 µM [inhibitor, partial curve, poor fit].
In the case of `O=C(c1cccc(OC2CN(CC3CC=CCC3)C2)c1)N1CCCC1` (stereo unspecified), the Potency is reported as inconclusive: 44.7 µM [inhibitor, partial curve, poor fit].
With `O=C(C[C@@H]1CCNC[C@@H]1Cc1cc(CC2CCCCC2)on1)NC1CC1` the Potency was inconclusive: 126 µM [inhibitor, single point].
With `CN1c2cc(C(=O)Nc3cccc(Cl)c3)ccc2C(=O)N2CCCCCC21` (stereo unspecified) the Potency was inconclusive: 70.8 µM [inhibitor, single point].
For `CS(=O)(=O)c1ccc(CN2C[C@@H]3OCC(=O)N(c4ccccc4)[C@@H]3C2)cc1`, the Potency was inconclusive: 79.4 µM [inhibitor, partial curve, poor fit].
For `Cc1ccc(-n2c(C3CCN(C(=O)c4ccc(F)cc4)CC3)n[nH]c2=O)cc1`, the Potency was inconclusive: 28.2 µM [inhibitor, partial curve, poor fit].
In the case of `Cc1ccc(CNC(=O)N2CCCC2c2nc(CCOc3ccc(F)cc3)no2)cc1` (stereo unspecified), the Potency is reported as inconclusive: 44.7 µM [inhibitor, partial curve, poor fit].
With `O=C(Nc1ccnn1C1CCN(Cc2ccc(-c3ccco3)cc2)CC1)C1CC1` the “activity change, negative = cytotoxicity” value was inactive: 0.343%.
With `O=C(c1ccco1)N1CCN(C(=O)C2CCc3ncc(-c4ccc(F)cc4)n3C2)CC1` (stereo unspecified) the Potency was inconclusive: 12.6 µM [inhibitor, full curve].
In the case of `CCOCC1(C)COc2ccc(C(=O)Nc3ccccc3)cc2N1` (stereo unspecified), the Potency is reported as inconclusive: 79.4 µM [inhibitor, partial curve].
With `CCCC(=O)Nc1cnc(-c2ccc(C)cc2)nc1` the “activity change, negative = cytotoxicity” value was inactive: -7.53%.
With `O=C(NCc1ccccc1)c1ccccc1OC1CN(Cc2ccsc2)C1` the Potency was active: 28.2 µM.
With `c1ccc([C@@H]2CNC[C@H]2COCC2CC2)nc1` the Potency was inconclusive: 39.8 µM [inhibitor, partial curve].
With `CNC(=O)c1cc(C2CC2)nc2onc(C3CCN(C(=O)C4CCCC4)CC3)c12` the “activity change, negative = cytotoxicity” value was inactive: -17%.
With `N#Cc1ccc(CN2CCCC3(CC(c4cccc(C(F)(F)F)c4)=NO3)C2)cc1` (stereo unspecified) the Potency was inconclusive: 35.5 µM [inhibitor, partial curve].
With `COC(=O)c1cccc(C(=O)N2CCC(Cc3nc(-c4ccc(OC)cc4)no3)CC2)c1` the Potency was inconclusive: 7.94 µM [inhibitor, full curve, poor fit].
